Reference: the supplement of paper PMC4466236
Whole data set: some 33,000 sequences, median “E-score (dimensionless, -0.5 to 0.5)” near -0.058, cut for the highest 2% near 0.35. Some of the results follow.

Test system: MvaT
Assay: PBM 8-mer E-score (mean of HK and ME arrays) (E-score (dimensionless, -0.5 to 0.5)); higher = stronger relative binding preference; most listed sequences are background and not binding sites
How it was run: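 Reported values are rank-based E-scores, taken as the mean of two universal arrays and parsed with a custom script. Each 8-mer score falls between -0.5 and 0.5. The arrays, ME and HK, were double-stranded 60-mers with a constant 25-mer primer region and a variable 35-mer region covering all 8-mers. They were probed, by an earlier protocol, with full-length P. aeruginosa MvaT carrying an N-terminal glutathione S-transferase fusion.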

| Sequence | PBM 8-mer E-score |
| --- | --- |
| AAAATATT | 0.435 |
| GCTCTCCC | -0.363 |
| GGGAGGGA | -0.229 |
| ATTATGCA | 0.337 |
| AAAGCATG | -0.0603 |
| CCGGGAAA | -0.0199 |
| GAGTAACA | 0.0497 |
| CATAAATC | 0.163 |
| GATTTGGA | -0.163 |
| AAATCGCC | -0.0798 |
| CAATCAAG | 0.103 |
| CACAGTTA | 0.165 |
| ATGTAGAA | 0.144 |
| CGAAAAGA | 0.128 |
| CGTTGCTC | -0.217 |
| ATCCCGCG | -0.0399 |
| GTTGTAGA | 0.158 |
| TGCAAACA | 0.106 |
| ACTAGGCG | -0.11 |
| CGAATCGA | 0.147 |
| TGCGATAA | 0.0674 |
| CGTACACA | 0.127 |
| ATGTCACC | -0.0161 |
| ACGATACC | -0.0898 |
| CGTGTCTC | -0.0557 |

| Sequence | PBM 8-mer E-score |
| --- | --- |
| AAGCAGAT | -0.054 |
| ATGCGTGC | -0.124 |
| GAAAGCCA | -0.192 |
| CTGTCACA | -0.122 |
| AAAAATTA | 0.275 |
| AAGGATCA | -0.139 |
| ATGAAGAC | 0.0318 |
| AACTTTAA | 0.385 |
| TAGCTGGA | -0.302 |
| GAATGTCC | -0.0827 |
| CGTACGCC | -0.222 |
| GGGAGCTA | -0.206 |
| ATAAGGCA | 0.203 |
| CTCGTGGA | -0.184 |
| GAGCGTGA | -0.216 |
| ATGAGTTG | 0.0506 |
| AGAAATGG | -0.162 |
| CCCTCAGG | -0.177 |
| ATGATGTC | -0.0953 |
| ACTGAAAT | 0.0999 |
| AGTTACTG | 0.282 |
| CACAAGGC | -0.197 |
| CAGGAGTC | -0.231 |
| CCTGGCTA | -0.149 |
| TGAGCTCA | -0.198 |

| Sequence | PBM 8-mer E-score |
| --- | --- |
| CACATGTG | -0.143 |
| CATCAACA | 0.0618 |
| AGACTGGA | 0.0474 |
| AATGTCCG | 0.00803 |
| GCGTGACC | -0.216 |
| GAATATTC | 0.349 |
| CGGTAAAA | 0.0627 |
| GACCTGCC | -0.29 |
| CACTAACG | -0.0868 |
| CCTTCCTC | -0.356 |
| CAATCTAG | 0.0954 |
| CAACCGGA | -0.0151 |
| AAGCCCAA | -0.138 |
| CACAGAGA | 0.0304 |
| AACGTGGC | -0.136 |
| AGTATTAC | 0.306 |
| ACTCGGGA | -0.112 |
| CGATCCGC | -0.158 |
| CACTGCAG | -0.126 |
| CCTAGACG | -0.198 |
| CTAATTTA | 0.389 |
| ATGGCGTG | -0.144 |
| AGATTCGC | -0.144 |
| ATACCACG | 0.121 |
| CACTTTAA | 0.274 |

| Sequence | PBM 8-mer E-score |
| --- | --- |
| CGTGTACA | 0.00185 |
| GTAAAAGA | 0.228 |
| AACCAGTG | -0.161 |
| CGAAGCAG | -0.254 |
| TTCCTCAA | 0.077 |
| ACAGCTGG | -0.158 |
| ACCAAAGT | 0.168 |
| GAACCTTC | -0.193 |
| GAAAGCGC | -0.18 |
| ACTGACGA | -0.0918 |
| AGATACTC | 0.108 |
| GCTGCCAC | -0.209 |
| AAGGACAT | 0.009 |
| GAAAAATA | 0.317 |
| AGTCTCCG | -0.144 |
| GCAGTGTA | -0.0294 |
| GAGTACTC | -0.143 |
| ACAGGCCG | -0.147 |
| AACACTCA | -0.0454 |
| AGGAGCCA | -0.267 |
| TGGTGGAA | -0.129 |
| GATCGGCC | -0.194 |
| GTATGCAC | 0.0491 |
| CACTTTTC | 0.102 |
| CCGCCGCG | -0.232 |

| Sequence | PBM 8-mer E-score |
| --- | --- |
| ATCCTTTG | -0.0516 |
| ACCTTTTA | 0.217 |
| ATGCCCGG | -0.154 |
| AAAATCCT | 0.0802 |
| CCTGGATA | 0.0126 |
| CGTCAACG | -0.103 |
| ACCAGCTC | -0.176 |
| GATTGTGC | -0.0469 |
| CCTGCCGC | -0.311 |
| TCGGTAAA | -0.0432 |
| ACATCGCG | 0.0109 |
| TAAGTTAA | 0.426 |
| ACCGGTTA | 0.00836 |
| ACATTAAG | 0.265 |
| CCCGCCGA | -0.214 |
| ATAATCGC | 0.245 |
| GTTGGGTA | -0.0758 |
| GGAGGCTA | -0.273 |
| CCCAAGGC | -0.0976 |
| GTGTTATA | 0.32 |
| CCAAAAAG | 0.0756 |
| AATTTTAC | 0.298 |
| ACCACGGG | -0.272 |
| AGCTGGTG | -0.102 |
| CATTTAGG | -0.00624 |

| Sequence | PBM 8-mer E-score |
| --- | --- |
| CATGGCGG | -0.14 |
| ATACAGAA | 0.158 |
| CCGTGGCG | -0.194 |
| CCTTAAAG | 0.0732 |
| GATTATGA | 0.0705 |
| CAAGTTCA | 0.295 |
| CCGTTCGA | -0.198 |
| CGCGGCTC | -0.284 |
| CTGCAGAA | 0.0767 |
| GCTTCGGA | -0.128 |
| AACCACGA | -0.00994 |
| CAGATGCA | -0.161 |
| CTTGCAAA | 0.0517 |
| GAATTGTA | 0.191 |
| AGAAACAA | 0.229 |
| CATAACCC | -0.0855 |
| AAGGCTTG | -0.164 |
| CAACGTAC | -0.0278 |
| CCCTCTTA | -0.148 |
| ACGCATGC | -0.0147 |
| CGATAGCG | -0.202 |
| CCAGCGGA | -0.242 |
| ACTAAATA | 0.31 |
| AACATAGC | 0.0859 |
| CACATCCA | 0.00683 |

| Sequence | PBM 8-mer E-score |
| --- | --- |
| GCATAGGC | -0.113 |
| AGGGGTAT | -0.0392 |
| CTATAATA | 0.42 |
| CAAGCATA | 0.089 |
| GTCGCGGA | -0.0294 |
| GGATGTTA | 0.191 |
| CTCGGAAA | 0.02 |
| CTTGCAGA | -0.112 |
| ACAACACT | 0.068 |
| CCAAATAC | 0.0881 |
| ACGCCGTA | -0.235 |
| AATTAGCT | 0.231 |
| GCCCCCCC | -0.303 |
| GATATTCA | 0.0985 |
| CTGCGGAA | -0.0896 |
| AGCGCGAA | -0.0554 |
| TATTGACA | 0.261 |
| ACGGATAT | 0.113 |
| CCAGGTCC | -0.34 |
| TCCTTGAA | -0.182 |
| AGGGTTCG | -0.21 |
| GACCAGCA | -0.151 |
